The record followed here is patent publication US20220411536A1 (NUMAB THERAPEUTICS, published 2022).

Experiment [1] concerns the target CD3e on Jurkat PD-1 NFAT reporter T cells or on T cells of human PBMCs (human). Description: cell-based or functional assay.
For experiment [2], the target named is T1, human PD-L1 expressed on cells (CHO-PD-L1, HCC1954, HCC827) (human).
T1 construct: whole, on cells; also called hPD-L1; PD-L1 expressing cells
Briefly: flow cytometry, inhibition of biotinylated PD-1 binding to HCC827 cells.

Experiment [3] addresses T1, human PD-L1 expressed on cells …. Briefly: flow cytometry, inhibition of biotinylated PD-1 binding to HCC1954 cells.
Experiment [4] concerns the target T2, recombinant human CD3E ECD (SinoBiological, cat. 10977-H08H) (human).
T2 construct: extracellular domain; bought protein; also called CD3s
Description: SPR, immobilised CD3e ECD, two-state model (kd1).

Experiment [5] concerns the target T2, recombinant human CD3E ECD …. Description: SPR, immobilised CD3e ECD, two-state model (ka1).
Experiment [6] shares this target. Description: SPR, immobilised CD3e ECD, two-state model.
The target in experiment [7] is T3, recombinant human IL-23R (custom-made by Trenzyme) (human).
T3 sequence (looked up): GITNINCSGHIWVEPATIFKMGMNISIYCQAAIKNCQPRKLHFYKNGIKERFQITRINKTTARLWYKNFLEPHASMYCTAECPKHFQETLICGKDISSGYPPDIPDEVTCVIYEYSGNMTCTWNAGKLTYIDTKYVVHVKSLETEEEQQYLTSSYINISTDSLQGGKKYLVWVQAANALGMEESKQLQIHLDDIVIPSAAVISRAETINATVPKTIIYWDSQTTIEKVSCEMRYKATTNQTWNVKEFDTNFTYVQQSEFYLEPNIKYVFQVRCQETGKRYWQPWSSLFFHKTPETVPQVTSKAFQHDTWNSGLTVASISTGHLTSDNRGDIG
Description: SPR, immobilised IL-23R.

B1: PRO1454 (multispecific antibody)
chain 1: [not shown - about 200 residues]GGGGSGGGGSDIQMTQSPSSLSASVGDRVTITCQSSQSVFSNNYLAWFQQKPGQSPKRLIYSASTLASGVPSRFSGSGSGTDFTLTISSLQPEDFATYYCLGSYACSSADCYVFGTGTKVTVLGGGGGSGGGGSGGGGSGGGGSEVQLVESGGGLVQPGGSLRLSCAASGFSLSSYDMSWVRQAPGKGLAWIGASYASGPTYYASWAKGRFTISRDNSKNTVYLQMNSLRAEDTATYFCARGGWTGTSHSNIWGQGTLVTVSS
chain 2: [not shown - about 120 residues]ASTKGPSVFPLAPSSKSTSGGTAALGCLVKDYFPEPVTVSWNSGALTSGVHTFPAVLQSSGLYSLSSVVTVPSSSLGTQTYICNVNHKPSNTKVDKKVEPKSCGGGGSGGGGSDIQMTQSPSSLSASVGDRVTITCQASQSINDYLAWYQQKPGKAPKLLIYKASTLASGVPSRFSGSGSGTDFTLTISSLQPEDFATYYCQQAYIITDIDNVFGTGTKVTVLGGGGGSGGGGSGGGGSGGGGSQVQLQESGPGLVKPSETLSLTCKVSGFSFSSGYDMCWIRQPPGKGLEWIGCVVAGSVDITYYASWAKGRVTISVDSSKNQFSLKLSSVTAADTAVYYCARKDAYSDAFNLWGQGTLVTVSS
Consider B1, for which the “IC50, NFAT reporter, HCC1954 cells” value in experiment [1] came out at 0.148 nM. The IC50 turned out to be 1.24 µg/mL in experiment [2] and 0.205 µg/mL in experiment [3].

B2: PRO1456 (multispecific antibody)
chain 1: [not shown - about 200 residues]GGGGSGGGGSDIQMTQSPSSLSASVGDRVTITCQSSQSVFSNNYLAWFQQKPGQSPKRLIYSASTLASGVPSRFSGSGSGTDFTLTISSLQPEDFATYYCLGSYACSSADCYVFGTGTKVTVLGGGGGSGGGGSGGGGSGGGGSEVQLVESGGGLVQPGGSLRLSCAASGFSLSSYDMSWVRQAPGKGLAWIGASYASGPTYYASWAKGRFTISRDNSKNTVYLQMNSLRAEDTATYFCARGGWTGTSHSNIWGQGTLVTVSS
chain 2: [not shown - about 120 residues]ASTKGPSVFPLAPSSKSTSGGTAALGCLVKDYFPEPVTVSWNSGALTSGVHTFPAVLQSSGLYSLSSVVTVPSSSLGTQTYICNVNHKPSNTKVDKKVEPKSCGGGGSGGGGSDIQMTQSPSSLSASVGDRVTITCQASENIYSFLAWYQQKPGKAPKLLIYSASKLAAGVPSRFSGSGSGTDFTLTISSLQPEDFATYYCQQTNRYSNPDIYNVFGTGTKVTVLGGGGGSGGGGSGGGGSGGGGSEVQLVESGGGLVQPGGSLRLSCAASGIDFNSNYYMCWVRQAPGKGLEWIGCIYVGSHVNTYYANWAKGRFTISRDNSKNTVYLQMNSLRAEDTAVYYCATSGSSVLYFKFWGQGTLVTVSS
Regarding B2, in experiment [1], the “IC50, NFAT reporter, HCC1954 cells” value worked out at 0.291 nM and the “rel. max. activation vs PRO1497, NFAT reporter, HCC1954 cells” value is 75%.

B3: PRO1497 (multispecific antibody)
chain 1: [not shown - about 200 residues]GGGGSGGGGSDIQMTQSPSSLSASVGDRVTITCQSSQSVFSNNYLAWFQQKPGQSPKRLIYSASTLASGVPSRFSGSGSGTDFTLTISSLQPEDFATYYCLGSYACSSADCYVFGTGTKVTVLGGGGGSGGGGSGGGGSGGGGSEVQLVESGGGLVQPGGSLRLSCAASGFSLSSYDMSWVRQAPGKGLAWIGASYASGPTYYASWAKGRFTISRDNSKNTVYLQMNSLRAEDTATYFCARGGWTGTSHSNIWGQGTLVTVSS
chain 2: [not shown - about 120 residues]ASTKGPSVFPLAPSSKSTSGGTAALGCLVKDYFPEPVTVSWNSGALTSGVHTFPAVLQSSGLYSLSSVVTVPSSSLGTQTYICNVNHKPSNTKVDKKVEPKSCGGGGSGGGGSDIQMTQSPSSLSASVGDRVTITCQASQSINDYLAWYQQKPGKAPKLLIYKASTLASGVPSRFSGSGSGTDFTLTISSLQPEDFATYYCQAAYIITDIDNVFGTGTKVTVLGGGGGSGGGGSGGGGSGGGGSQVQLQESGPGLVKPSETLSLTCKVSGFSFSSGYDMCWIRQPPGKGLEWIGCVVAGSVDITYYASWAKGRVTISVDSSKNQFSLKLSSVTAADTAVYYCARKDAYSDAFNLWGQGTLVTVSS
Take B3: in experiment [4], the koff came to 0.00594 s⁻¹. In experiment [1], the “IC50, NFAT reporter, HCC1954 cells” value stood at 0.361 nM and the “rel. max. activation vs PRO1497, NFAT reporter, HCC1954 cells” value worked out at 100%. Moreover, in experiment [5], the kon stood at 231000 M⁻¹ s⁻¹. In addition, in experiment [6], the KD1 was found to be 25.7 nM, the Kd amounted to 20.6 nM and the kd2 turned out to be 0.00286 s⁻¹. Also, the binding result in experiment [7] is recorded as “no binding (tested: 90 nM highest concentration)”. In experiment [3], this molecule had an IC50 of 0.352 µg/mL.
